Assay results as given in PubChem BioAssay AID1956 (SRMLSC, 2009).
Some of the results follow. Further columns of the screen follow, without active or inactive calls.

Test: enhancers of HSV replication in host cells, fold increase, host cell viability (AID 1956); also: tested in PC3 cells
Details: HSV replication augmentation in cells; fold increase: measured here: primary screen fold increase 10 uM, at 10 µM, stronger effect = higher value; viability: measured here: host cell viability series, at 25 µM, stronger effect = lower value

| Structure (SMILES) | fold increase | viability [%] |
| --- | --- | --- |
| O=C1/C(=C/c2ccc(O)cc2)SC(=S)N1Cc1cccnc1 | 4.62 | 94.6 |
| Nc1cccnc1Sc1cc(Cl)c(Cl)cc1Cl | 1.34 | 104 |
| O=S(=O)(c1cc(Cl)ccc1Br)N1CCCCC1 | 1.45 | 89.2 |
| COc1ccccc1NC(=O)CCC(=O)OCc1ccc([N+](=O)[O-])cc1 | 1.32 | – |
| CCc1ccc(C2N(c3ccc(OC)cc3)C(=O)C3CCCN32)cc1 (centres undefined) | 1.37 | 91.4 |
| COc1ccc2o/c(=N/NC(=O)c3cccs3)c(C(N)=O)cc2c1 | 1.77 | 92.2 |
| O=C(c1cccnc1)N1CCN(C/C=C/c2ccccc2)CC1 | 1.57 | 92.5 |
| CCN(CC)c1ccc(/C=C(/C#N)C(=O)NC(C)C)o1 | 1.67 | – |
| COC(=O)c1cnc(NNS(=O)(=O)c2ccc(Cl)cc2)nc1C(F)(F)F | 1.62 | 99.4 |
| Cc1ccccc1C(=O)Nc1ccc2c(C#N)c3nc4ccccc4nc3n2c1 | 2.42 | – |
| COC(=O)C1C2C=CC3(CN(c4cccc(Cl)c4)C(=O)C13)O2 (centres undefined) | 1.37 | 103 |
| COC(=O)C1(C)NC(=O)c2ccccc2N1 (centres undefined) | 1.34 | 91.8 |
| CC(=O)Oc1ccc(OC(C)=O)c2c1CC(C)=C(C)C2 | 1.68 | 95.6 |
| Cc1cc2nc3c(=O)n(C4CCCCC4)c(=O)[nH]c3nc2cc1N | 5.6 | – |
| CC1=CC(=C(C#N)c2nc3ccccc3s2)C=C(C)N1c1ccc(F)cc1F | 1.45 | – |
| CC(=O)Nc1ccc(NS(=O)(=O)c2cccc3ccccc23)cc1 | 1.34 | 96.7 |
| O=C(Cc1cccc2ccccc12)Nc1ccc(-c2cc3ccccc3oc2=O)cc1 | 1.26 | – |
| CC(C)Oc1ccc(C2C(C#N)=C(N)Oc3c2oc(CO)cc3=O)cc1 (centres undefined) | 1.5 | 92.1 |
| O=C(NC1CCN(C(=O)c2cccs2)CC1)c1ccccc1 | 1.49 | 98.2 |
| C/C(=N\NC(=O)CNc1cccc2ccccc12)c1ccccc1 | 1.36 | 96.6 |
| CCC(CCC(=O)Nc1ccc(S(N)(=O)=O)cc1)C(=O)O (centres undefined) | 1.37 | 99.7 |
| Cc1ccccc1NC1=C(C(=O)c2ccccc2)N(C)S(=O)(=O)c2ccccc21 | 1.12 | – |
| O=C(Nc1ccccc1F)C1CCCN(S(=O)(=O)c2cccc3cccnc23)C1 (centres undefined) | 1.44 | 91.6 |
| Cc1ccc(C(=O)Nc2ccccc2C(=O)N2CCCCCC2)cc1 | 1.36 | 98.9 |

| Structure (SMILES) | fold increase | viability [%] |
| --- | --- | --- |
| Cn1c(/C(C#N)=C/c2ccc(-c3ccc(S(N)(=O)=O)cc3)o2)nc2ccccc21 | 4.12 | 79 |
| CN(C)c1ccc(/C=C(/C(=O)c2ccc(Cl)cc2Cl)n2cncn2)cc1 | 3.58 | 72 |
| CN(C)c1ccc(C(CC(=O)c2ccccc2)C2CCCCC2=O)cc1 (centres undefined) | 1.52 | 92 |
| CCOC(=O)C1=C(Cc2ccc(F)cc2)C(=O)c2ccccc2C1=O | 5.31 | 77.6 |
| Cc1[nH]c2ccccc2c1C(=O)C(=O)N1CC=C(c2ccccc2)CC1 | 6.35 | 79.2 |
| COC(=O)c1scc(C)c1N/N=C(\C)c1cc(F)c(Cl)cc1F | 1.41 | 92.9 |
| COc1ccc(S(=O)(=O)NNC(=O)C(=O)NNc2ccccn2)cc1 | 1.34 | 106 |
| CN(CC1CCOCC1)C(=O)CC1C(=O)NCCN1CC1CCCCC1 (centres undefined) | 1.51 | 105 |
| COc1cccc(C2C=C(c3ccc(Br)s3)Nc3ncnn32)c1OC (centres undefined) | 2.99 | – |
| COc1ccc(-n2c(COc3ccc4ccccc4c3)nnc2SCC(=O)NCc2ccco2)cc1 | 1.36 | 93.9 |
| CCc1ccc(/C=C2\CN(CC)Cc3c2nc2ccccc2c3C(=O)O)cc1 | 1.77 | 103 |
| CN(CC(CC(=O)Nc1nncs1)c1ccccc1)S(=O)(=O)c1ccccc1 (centres undefined) | 1.53 | 88.7 |
| CC1(C)Cc2c(c(-c3ccco3)nc3sc4c(NCC5CCCO5)ncnc4c23)CO1 (centres undefined) | 1.4 | 89.8 |
| COc1ccc(Cn2c(C)c(C)c(C#N)c2NC(=O)Nc2cccc(Cl)c2)cc1 | 1.38 | – |
| CCCC[n+]1ccn(C2=C([O-])c3ccccc3C(=O)/C2=N\S(=O)(=O)c2ccc(Br)cc2)c1 | 1.99 | 99.7 |
| CNC(=O)NC1CCCCc2sccc21 (centres undefined) | 1.44 | 100 |
| CC(=O)C1=C(C)NC(SCc2cccc3ccccc23)=C(C#N)C1c1ccco1 (centres undefined) | 1.35 | – |
| CC(=O)Nc1cccc(C2=CC(c3ccco3)n3ncnc3N2)c1 (centres undefined) | 2.92 | 95.9 |
| N#CC1=C(N)n2c(s/c(=C\c3cccs3)c2=O)=C(C#N)C1c1cccs1 (centres undefined) | 2.61 | – |
| O=C(O)c1ccccc1N/N=C/c1c(Sc2nnnn2-c2ccccc2)nc2ccccn2c1=O | 10 | 101 |
| Cc1cc(O)c(C(C)C)cc1N=Nc1ccccc1C(=O)O | 1.4 | 95.4 |
| Cc1ccc(NS(=O)(=O)c2ccc(Br)cc2)nc1 | 1.65 | 87.7 |
| CCCOc1ccc(C(C)=O)cc1CSc1nc(O)cc(=O)[nH]1 | 1.2 | – |
| C=CC1=C(C(=O)O)N2C(=O)C(NC(=O)Cc3ccccc3)C2SC1 (centres undefined) | 1.38 | 97.1 |
